Measurements published in paper PMC9879999, “A phosphoinositide hub connects CLE peptide signaling and polar auxin efflux regulation” (Nature Communications, 2023).
Results are given in words; binding and its absence hold for the method and conditions named. For some of these results: Binding seen in cells or lysates may run through a third protein. Some entries that bind do so weakly or less than the wild type. For some of these results: Tags and fused reporters may be left off the sequences shown.

T1: 3-phosphoinositide-dependent protein kinase 1 (PDK1) (Arabidopsis thaliana) (UniProt Q9XF67)
T1 sequence: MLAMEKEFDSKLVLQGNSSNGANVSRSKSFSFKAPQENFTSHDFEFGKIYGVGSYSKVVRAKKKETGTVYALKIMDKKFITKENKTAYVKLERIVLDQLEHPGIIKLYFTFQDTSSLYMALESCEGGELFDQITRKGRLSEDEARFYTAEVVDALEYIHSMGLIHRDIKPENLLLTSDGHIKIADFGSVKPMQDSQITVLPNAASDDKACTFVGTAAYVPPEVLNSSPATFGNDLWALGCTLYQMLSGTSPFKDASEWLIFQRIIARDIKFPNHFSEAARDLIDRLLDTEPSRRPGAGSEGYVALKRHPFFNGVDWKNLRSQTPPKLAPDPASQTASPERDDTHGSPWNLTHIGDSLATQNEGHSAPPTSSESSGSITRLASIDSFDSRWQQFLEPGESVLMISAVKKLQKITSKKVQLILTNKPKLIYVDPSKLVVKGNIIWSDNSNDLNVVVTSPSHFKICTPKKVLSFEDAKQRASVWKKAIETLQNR

T2: BREVIS RADIX (BRX) (Arabidopsis thaliana) (UniProt Q17TI5)
T2 sequence: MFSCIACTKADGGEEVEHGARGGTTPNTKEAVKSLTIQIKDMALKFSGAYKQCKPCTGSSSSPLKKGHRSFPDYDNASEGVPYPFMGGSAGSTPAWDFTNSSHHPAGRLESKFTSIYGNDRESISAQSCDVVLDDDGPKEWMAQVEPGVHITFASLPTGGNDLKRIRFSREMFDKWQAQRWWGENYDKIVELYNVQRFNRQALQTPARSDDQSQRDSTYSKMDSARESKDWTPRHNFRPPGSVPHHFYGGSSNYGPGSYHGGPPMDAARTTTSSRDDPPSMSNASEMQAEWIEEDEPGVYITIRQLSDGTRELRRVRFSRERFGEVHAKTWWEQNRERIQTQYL

T3: BRX-LIKE 2 (BRXL2) (Arabidopsis thaliana) (UniProt Q8GYL9)
T3 sequence: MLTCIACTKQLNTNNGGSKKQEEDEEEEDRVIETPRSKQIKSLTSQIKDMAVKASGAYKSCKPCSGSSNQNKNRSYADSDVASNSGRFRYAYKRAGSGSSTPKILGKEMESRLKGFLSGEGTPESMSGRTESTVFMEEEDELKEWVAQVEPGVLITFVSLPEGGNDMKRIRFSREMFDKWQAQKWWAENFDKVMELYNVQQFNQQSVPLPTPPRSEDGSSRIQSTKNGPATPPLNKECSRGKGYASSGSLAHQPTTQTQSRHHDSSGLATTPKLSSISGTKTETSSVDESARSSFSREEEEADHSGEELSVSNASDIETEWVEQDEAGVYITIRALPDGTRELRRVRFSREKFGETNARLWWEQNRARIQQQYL

T4: nYFP-BRX (Arabidopsis thaliana) (UniProt Q17TI5)
T4 sequence: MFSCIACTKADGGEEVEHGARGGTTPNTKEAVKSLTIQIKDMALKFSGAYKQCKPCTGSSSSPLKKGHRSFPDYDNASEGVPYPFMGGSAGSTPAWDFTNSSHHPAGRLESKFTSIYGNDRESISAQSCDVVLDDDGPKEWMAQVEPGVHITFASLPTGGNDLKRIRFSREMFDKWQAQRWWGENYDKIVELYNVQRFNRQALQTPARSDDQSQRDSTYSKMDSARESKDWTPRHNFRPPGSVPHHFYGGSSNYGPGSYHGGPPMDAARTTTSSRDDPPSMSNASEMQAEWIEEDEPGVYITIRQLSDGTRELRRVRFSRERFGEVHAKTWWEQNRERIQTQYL


Assays:
[1] = molecular target: T1, 3-phosphoinositide-dependent protein kinase 1 (PDK1) (Arabidopsis thaliana); experiment: two-hybrid; Golden Yeast strain; pGBKT7 or pGADT7 vectors as baits or preys; tested on -Trp-Leu and -Trp-Leu-Ade-His medium; 3-AT added for BRX-related bait proteins
[2] = molecular target: T2, BREVIS RADIX (BRX) (Arabidopsis thaliana); experiment: as above
[3] = molecular target: T3, BRX-LIKE 2 (BRXL2) (Arabidopsis thaliana); experiment: as above
[4] = molecular target: T4, nYFP-BRX (Arabidopsis thaliana); experiment: split reporter; BiFC: 35S::PBL34-cYFP and 35S::nYFP-BRX transiently co-expressed in Nicotiana benthamiana leaves; eYFP signal by confocal microscopy

Row | binding [1] | binding [2] | binding [3] | binding [4] | Binder
1 | no binding |  |  |  | kinase domain of CORYNE (CRN) (domain or fragment, UniProt Q9LYU7 118-401) SNGIQLLGSDLNGKYYKMVLDNGLVVAVKRLGSLEGVGSPESSSSKSVKRRLQKELELLAGLRHRNLMSLRAYVRESDEFSLVYDYMPNGSLEDVMNKVRTKEVELGWEIRLRVAVGIVKGLQYLHFSCETQILHYNLKPTNVMLDSEFEPRLADCGLAKIMPSSHTAVSCYSAPESSQSNRYTDKSDIFSFGMILGVLLTGRDPTHPFCEESASGGSLGQWLKHLQQSGEAREALDKTILGEEVEEDEMLMALRITIICLSDFPADRPSSDELVHMLTQLHSF
2 | no binding |  |  |  | BARELY ANY MERISTEM 3 (BAM3) kinase domain (domain or fragment, UniProt O65440 710-992) VKENHVIGKGGRGIVYKGVMPNGEEVAVKKLLTITKGSSHDNGLAAEIQTLGRIRHRNIVRLLAFCSNKDVNLLVYEYMPNGSLGEVLHGKAGVFLKWETRLQIALEAAKGLCYLHHDCSPLIIHRDVKSNNILLGPEFEAHVADFGLAKFMMQDNGASECMSSIAGSYGYIAPEYAYTLRIDEKSDVYSFGVVLLELITGRKPVDNFGEEGIDIVQWSKIQTNCNRQGVVKIIDQRLSNIPLAEAMELFFVAMLCVQEHSVERPTMREVVQMISQAKQPNTF
3 | no binding | binds | no binding |  | PBS1-LIKE 35 (PBL35) (enzyme, UniProt Q9SRH7 1-490) MGFDSVKVMENWQSKTSNENEKKKKKRRRKKNNNVRNSEHYEEEANGCWVKFRYIVCCASSTSDVETSLTLSTSTVGSQSAIVQSNDQPVGPVSSTTTTSNAESSLSTPIISEELNIYSHLKKFSFIDLKLATRNFRPESLLGEGGFGCVFKGWVEENGTAPVKPGTGLTVAVKTLNPDGLQGHKEWLAEINYLGNLLHPNLVKLVGYCIEDDQRLLVYEFMPRGSLENHLFRRSLPLPWSIRMKIALGAAKGLSFLHEEALKPVIYRDFKTSNILLDGEYNAKLSDFGLAKDAPDEGKTHVSTRVMGTYGYAAPEYVMTGHLTSKSDVYSFGVVLLEMLTGRRSMDKNRPNGEHNLVEWARPHLLDKRRFYRLLDPRLEGHFSVKGAQKVTQLAAQCLSRDSKIRPKMSEVVEVLKPLPHLKDMASASYYFQTMQAERLKAGSGSGSGRGFGSRNGQPVFRTLSSPHGQAGSSPYRHQIPSPKPKGATT
4 |  | binds |  |  | kinase-dead PIP5K1 variant (K536A; 'iPIP5K1') (enzyme, UniProt Q56YP2 1-752) MSDSEEDEEEEEASEVILSSVVQKKKKKNLRFGEEVERRDGLVLLAQSTPMVRSRSQGTTRRVTPTPLVDVEKPLPNGDLYIGSFSGGFPHGSGKYLWKDGCMYEGDWKRGKASGKGKFSWPSGATYEGEFKSGRMEGFGTFTGADGDTYRGTWVADRKHGHGQKRYANGDFYEGTWRRNLQDGRGRYVWRNGNQYTGEWRSGVISGKGLLVWPNGNRYEGLWENGIPKGNGVFTWSDGSSCVGAWNESNIMRSFFNGVEKNDLIVGNRKRSSVDSGAGSLGGEKVFPRICIWESDGEAGDITCDIIDNVEASMIYRDRISVDRDGFRQFKKNPCWFNGEAKKPGQTISKGHKKYDLMLNLQLGIRYSVGKHASIVRDLKQTDFDPKEKFWTRFPPEGTKTTPPHQSVDFRWKDYCPLVFRRLRELFQVDPAKYMLAICGNDALRELSSPGKSGSFFYLTQDDRFMIKTVKKSEVKVLLRMLPSYYKHVCQYENSLVTRFYGVHCVKPVGGQKTRFIVMGNLFCSEYRIQRRFDLAGSSHGRSTAKPEGEIDETTTLKDLDLNFSFRLQRNWYQELMKQIKRDCEFLEAERIMDYSLLVGVHFRDDNTGEKMGLSPFVLRSGRIDSYQNEKFMRGCRFLEAELQDMDRILAGRKPSIRLGANMPAKAERMARRSDFDQYSSGGASYPSHGEMYEVVLYFGVIDILQDYDITKKIEHAYKSLQADPASISAVDPKLYSKRFRDFISRIFIEEG
5 | no binding | binds | no binding |  | PBS1-LIKE 34 (PBL34) (enzyme, UniProt Q9LFP7 1-493) MGLDAVKAKGNWKSEKPKETENKNHKKKNGDDNKSRNEEEEEGEASGCWVKFRFMIGCIPSKSDLDASSSSIYGSNCTVTTMESKSANEKSNDQPVGQVSSTTTTSNAESSSSTPVISEELNISSHLRKFTFNDLKLSTRNFRPESLLGEGGFGCVFKGWIEENGTAPVKPGTGLTVAVKTLNPDGLQGHKEWLAEINFLGNLLHPNLVKLVGYCIEDDQRLLVYEFMPRGSLENHLFRRSLPLPWSIRMKIALGAAKGLSFLHEEALKPVIYRDFKTSNILLDADYNAKLSDFGLAKDAPDEGKTHVSTRVMGTYGYAAPEYVMTGHLTSKSDVYSFGVVLLEMLTGRRSMDKNRPNGEHNLVEWARPHLLDKRRFYRLLDPRLEGHFSIKGAQKVTQLAAQCLSRDPKIRPKMSDVVEALKPLPHLKDMASSSYYFQTMQAERLKNGSGRSQGFGSRNGQHQPVFRTLSSPHGSSPYRHQIPSPKPKGATT
6 |  |  |  | binds | PBL34-cYFP (enzyme, UniProt Q9LFP7 1-493) MGLDAVKAKGNWKSEKPKETENKNHKKKNGDDNKSRNEEEEEGEASGCWVKFRFMIGCIPSKSDLDASSSSIYGSNCTVTTMESKSANEKSNDQPVGQVSSTTTTSNAESSSSTPVISEELNISSHLRKFTFNDLKLSTRNFRPESLLGEGGFGCVFKGWIEENGTAPVKPGTGLTVAVKTLNPDGLQGHKEWLAEINFLGNLLHPNLVKLVGYCIEDDQRLLVYEFMPRGSLENHLFRRSLPLPWSIRMKIALGAAKGLSFLHEEALKPVIYRDFKTSNILLDADYNAKLSDFGLAKDAPDEGKTHVSTRVMGTYGYAAPEYVMTGHLTSKSDVYSFGVVLLEMLTGRRSMDKNRPNGEHNLVEWARPHLLDKRRFYRLLDPRLEGHFSIKGAQKVTQLAAQCLSRDPKIRPKMSDVVEALKPLPHLKDMASSSYYFQTMQAERLKNGSGRSQGFGSRNGQHQPVFRTLSSPHGSSPYRHQIPSPKPKGATT
7 | no binding | binds | no binding |  | PBS1-LIKE 36 (PBL36) (enzyme, UniProt F4J0D2 1-476) MATKLESFKVVEKLGVEKGEKGKMMSKKKNVKKDGDESESGFWFRFKFIFSCISSRSKVDSSMNATAVIAEPKKVIEKLEGHPAPTKDTGCAESGSSTPLMSGELKYSSKLRIFMFNDLKLATRNFRPESLLGEGGFGCVFKGWIEENGTAPVKPGTGLTVAVKTLNPDGLQGHKEWLAEINFLGNLVHPSLVKLVGYCMEEDQRLLVYEFMPRGSLENHLFRRTLPLPWSVRMKIALGAAKGLAFLHEEAEKPVIYRDFKTSNILLDGEYNAKLSDFGLAKDAPDEKKSHVSTRVMGTYGYAAPEYVMTGHLTTKSDVYSFGVVLLEILTGRRSVDKSRPNGEQNLVEWVRPHLLDKKRFYRLLDPRLEGHYSIKGAQKATQVAAQCLNRDSKARPKMSEVVEALKPLPNLKDFASSSSSFQTMQPVAKNGVRTQGGGFVSRNGPPMRSLSSLNLPQASPYRYARQSPKPKGKEP
